± gives the standard deviation of the averaged measurements. Over roughly 33,000 sequences, “E-score (dimensionless, -0.5 to 0.5)” has its median near -0.046; the highest 2% begin near 0.36. The list shows a part of the results.
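Note: protein at 200 nM in PBS on universal double-stranded arrays.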

For this assay, the system named is T1, SpTbr T-box DNA-binding domain (GST fusion).
T1 sequence: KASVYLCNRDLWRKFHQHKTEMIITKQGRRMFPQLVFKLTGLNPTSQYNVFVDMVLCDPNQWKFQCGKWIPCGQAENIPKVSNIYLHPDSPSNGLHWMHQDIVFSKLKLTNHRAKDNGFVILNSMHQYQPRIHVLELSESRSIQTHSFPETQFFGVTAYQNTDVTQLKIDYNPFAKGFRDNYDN
Description: PBM E-score of 8-mer (E-score (dimensionless, -0.5 to 0.5)); Tbr is Tbrain of the sea star Patiria miniata (Pm) or the sea urchin Strongylocentrotus purpuratus (Sp); higher = stronger binding preference; most listed sequences are background and not binding sites. As to conditions: the construct has about 5 more residues each side. On the procedure:
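Universal protein-binding microarray (Agilent AMADID 016060, 60-bp probes with a 35-bp variable region) incubated with 200 nM GST-fused Strongylocentrotus purpuratus Tbr T-box DNA-binding domain (residues 362-554) in PBS pH 7.5. Scored for every ungapped 8-mer (given with its reverse complement) as E-score (range -0.5 to 0.5; >0.45 counts as bound) and Z-score of median probe intensity. Two replicate arrays (datasets 1 and 2).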
Consider CCGGAACC, for which the “PBM E-score of 8-mer” value was -0.3379 ± 0.0032. On to CATGACTC, for which the “PBM E-score of 8-mer” value is -0.203 ± 0.017.

As to CTGGTGCA, the “PBM E-score of 8-mer” value is -0.0587 ± 0.0083. As for TGGCGGAA, the figure is 0.00426 ± 0.036; as for TCCCCCAA, -0.0995 ± 0.0068. ACCGGAAA: the “PBM E-score of 8-mer” value was -0.106 ± 0.0049. Turning to GGATTTAA, the “PBM E-score of 8-mer” value was -0.255 ± 0.032.

On to CTGTGATC, for which the “PBM E-score of 8-mer” value came to 0.271 ± 0.031.

As to AAATCTAT, the “PBM E-score of 8-mer” value is -0.142 ± 0.0023. Regarding GCCCATAC, the “PBM E-score of 8-mer” value was -0.131 ± 0.035. Turning to GACTGTCA, the “PBM E-score of 8-mer” value was determined as 0.144 ± 0.037. As for CAAGGGAA, the figure is -0.249 ± 0.047; as for CTTTAATC, 0.0648 ± 0.12; as for CAGAAGTC, 0.00129 ± 0.0069. Consider TATAGCAA, for which the “PBM E-score of 8-mer” value is -0.00161 ± 0.023. As for ACCGCGCC, the figure is 0.0224 ± 0.099. As for AGTGAACC, the figure is -0.176 ± 0.084; as for CACGAAAG, -0.101 ± 0.019. As for GTCTTAAA, the figure is -0.138 ± 0.061; as for CATACGTC, -0.146 ± 0.039. ATAATCTA: the “PBM E-score of 8-mer” value was -0.102 ± 0.077. Then GGCGTCCC, with -0.252 ± 0.051. CGCCCTAA: the “PBM E-score of 8-mer” value was -0.0107 ± 0.049. In the case of CAGCCAGC, the “PBM E-score of 8-mer” value was -0.197 ± 0.042.

With ATAAGACC, the “PBM E-score of 8-mer” value was -0.0531 ± 0.062. Then AACCTTGA, with 0.0164 ± 0.045; and CGCCGGAA, with 0.103 ± 0.014; and ACCGGCCT, with -0.0405 ± 0.017.

With CTGTCCCC, the “PBM E-score of 8-mer” value is -0.128 ± 0.04. Then GACACCAA, with 0.327 ± 0.024. As for CTGTCCAA, the “PBM E-score of 8-mer” value worked out at 0.0304 ± 0.0091.

As for GGTCTGAC, the “PBM E-score of 8-mer” value is -0.0722 ± 0.053. Regarding CTTACTTC, the “PBM E-score of 8-mer” value turned out to be 0.0909 ± 0.034. CGAAAGTA: the “PBM E-score of 8-mer” value was 0.102 ± 0.06. As for GGGCGCCA, the figure is 0.103 ± 0.036; as for CCACCCTA, 0.0825 ± 0.11; as for CCATTTCG, 0.126 ± 0.016. As for GACTCGGA, the figure is -0.0707 ± 0.011; as for AACATAAC, 0.162 ± 0.0069. As for CCGATTAG, the figure is -0.0752 ± 0.075; as for ATCCTGGG, -0.235 ± 0.046; as for CCATTTAG, -0.0123 ± 0.0033. Turning to CACCTGGA, the “PBM E-score of 8-mer” value is 0.297 ± 0.025. Turning to TCTTGTAA, the “PBM E-score of 8-mer” value was -0.00011 ± 0.013. As for CTCGGTTA, the figure is -0.116 ± 0.045; as for ACGGAAGG, 0.00251 ± 0.053. Then CTATCAAA, with -0.16 ± 0.067; and CTCCGGGC, with -0.239 ± 0.039. As for CCCCGAGC, the figure is -0.16 ± 0.044. In the case of TCAAGCCA, the “PBM E-score of 8-mer” value is -0.0895 ± 0.0015. As for AGATGCTG, the figure is -0.151 ± 0.043; as for GCGTGCCC, -0.285 ± 0.1; as for GAAAGGTA, -0.0855 ± 0.047. CCTACGAG: the “PBM E-score of 8-mer” value is -0.119 ± 0.036. Then CCTAGAGA, with -0.13 ± 0.0086; and GCAGCTGC, with 0.000255 ± 0.034; and TCGGCGCA, with -0.193 ± 0.0032. Regarding AAAAACCC, the “PBM E-score of 8-mer” value was -0.0852 ± 0.029. On to CTAGTGTA, for which the “PBM E-score of 8-mer” value amounted to 0.0859 ± 0.081. Then GATGCTCC, with -0.18 ± 0.03; and GTTTCATA, with -0.268 ± 0.054; and CGCAACGA, with -0.0639 ± 0.012. With ATTTCAGA, the “PBM E-score of 8-mer” value is -0.188 ± 0.11.

Regarding AACTTCGG, the “PBM E-score of 8-mer” value is -0.204 ± 0.07.

Consider TTCGGCAA, for which the “PBM E-score of 8-mer” value is -0.0157 ± 0.08. In the case of CAGATGCG, the “PBM E-score of 8-mer” value was -0.139 ± 0.019. With CTCAAAAA, the “PBM E-score of 8-mer” value was 0.0658 ± 0.021. On to AAACTAGG, for which the “PBM E-score of 8-mer” value was -0.16 ± 0.04.

As to CGTTCCAA, the “PBM E-score of 8-mer” value was -0.0379 ± 0.052.

In the case of TAAGAAAA, the “PBM E-score of 8-mer” value was -0.215 ± 0.13. Then GTTGAACA, with -0.0139 ± 0.077; and GGTCCCCA, with -0.0658 ± 0.0046; and AGCCCTCA, with -0.0251 ± 0.02.

Consider GCCCGTAC, for which the “PBM E-score of 8-mer” value is -0.119 ± 0.012. As for CCACAAAC, the figure is 0.0853 ± 0.026; as for GGTCTGCA, -0.105 ± 0.029; as for ACGCTCAT, -0.0367 ± 0.051.

On to CGCTACGC, for which the “PBM E-score of 8-mer” value is 0.169 ± 0.025.

AAAGGGAC: the “PBM E-score of 8-mer” value was -0.175 ± 0.0097. As for ATTTCGGG, the figure is 0.0907 ± 0.092; as for ACTCGACA, 0.24 ± 0.029. Then CTTTATAA, with -0.144 ± 0.059. As for ACTGGTAT, the figure is -0.125 ± 0.069; as for ACCGGGTC, 0.0309 ± 0.053; as for CTACGATC, -0.0614 ± 0.015. As for CGGCGTAG, the “PBM E-score of 8-mer” value was -0.0938 ± 0.085.
